Experimental data: publication PMC6602471
The list shows a part of the results. At the low end of the ranking, values are background and their order means little.

molecular target: T1, ELK1 (UniProt P19419); experiment: custom PBM; conditions: custom protein-binding microarray; buffer, salt, pH and temperature not stated; high values mean tight binding; double strand, one strand shown
T1 sequence: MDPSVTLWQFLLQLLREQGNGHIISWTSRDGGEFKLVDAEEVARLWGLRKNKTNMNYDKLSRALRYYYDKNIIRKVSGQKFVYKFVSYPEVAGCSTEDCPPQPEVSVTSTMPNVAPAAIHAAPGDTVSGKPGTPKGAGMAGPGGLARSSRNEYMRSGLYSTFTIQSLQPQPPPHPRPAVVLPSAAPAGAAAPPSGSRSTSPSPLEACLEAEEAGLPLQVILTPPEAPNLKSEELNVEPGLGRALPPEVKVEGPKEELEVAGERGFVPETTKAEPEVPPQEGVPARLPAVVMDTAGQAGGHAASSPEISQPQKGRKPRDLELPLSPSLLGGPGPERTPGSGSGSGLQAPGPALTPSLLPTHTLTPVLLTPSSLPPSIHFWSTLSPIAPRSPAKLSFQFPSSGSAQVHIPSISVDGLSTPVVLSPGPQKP

| Sequence | binding signal (log fluorescence intensity) |
| --- | --- |
| CTGGGACTTGACCCAACTCTGCCACGTGGGGCGTTTGTCTTGATTCGCTTGACGCTGCTG | 8.94 |
| TAAAGGGAAGTCGGTTGTGGTAGTTCCGGGTATTAAGTCTTGATTCGCTTGACGCTGCTG | 11.8 |
| TTCGGCTACCAGCTCCACCCACTTCAGGCCTTGTAGGTCTTGATTCGCTTGACGCTGCTG | 8.78 |
| GATTAATTTCTGCCCTTATTCGCACGTGCTATAACAGTCTTGATTCGCTTGACGCTGCTG | 8.81 |
| CAGCATAGGACTTCTTCCCTGAAGCAAATGATAACCGTCTTGATTCGCTTGACGCTGCTG | 8.83 |
| TCCGGCTACCAGCTCCACCCACTTCAGGCCTGGTAGGTCTTGATTCGCTTGACGCTGCTG | 8.82 |
| CACAATTGTTACAGTAATGTAGCACGCGTAACTCCTGTCTTGATTCGCTTGACGCTGCTG | 8.91 |
| TCCGGCTACCAGCTCCATCCACTTCAGGCCTTGTAGGTCTTGATTCGCTTGACGCTGCTG | 8.84 |
| CAGCATAGGGCTTCTTCCCTGAAGCAATTGATAACCGTCTTGATTCGCTTGACGCTGCTG | 8.86 |
| GCTGCTGCGGTGCATACCCCACCGGACGTGACCCCGGTCTTGATTCGCTTGACGCTGCTG | 9.54 |
| CACAATTATTACAGTAATGTAGCACGCGTAACTCCTGTCTTGATTCGCTTGACGCTGCTG | 8.86 |
| CGGAAGTGTCGTAAACGTCGGATATCCAGTTCTTCTGTCTTGATTCGCTTGACGCTGCTG | 9.15 |
| TACTGACTTATAAATGCGAATGCACATGAATAGACCGTCTTGATTCGCTTGACGCTGCTG | 8.85 |
| GTGTATAGGATCCCATCCAACACACGAGTTAAAATGGTCTTGATTCGCTTGACGCTGCTG | 8.83 |
| GGAAAAAGGCCCAGGGTAACACCGTAAGTGGGCTTAGTCTTGATTCGCTTGACGCTGCTG | 8.95 |
| CGGAAGTGTAGTAAACGTCGGATATCCGGTTCTTCTGTCTTGATTCGCTTGACGCTGCTG | 12.1 |
| CTGGGACTTGACCAAACTCTGCCACGTGGGTCGTTTGTCTTGATTCGCTTGACGCTGCTG | 8.97 |
| TCCGGCTACCAGCTCCACCCACTTCATGCCTTGTAGGTCTTGATTCGCTTGACGCTGCTG | 8.92 |
| GTGTATAGGATCCCATCCAACACACGTGTTTAAATGGTCTTGATTCGCTTGACGCTGCTG | 8.82 |
| TACTGACTTATATATGCGAATGCACCTGAATAGACCGTCTTGATTCGCTTGACGCTGCTG | 8.86 |
| CAGCATAGGACTTCTTCCCTGAAGCACTTGATAACCGTCTTGATTCGCTTGACGCTGCTG | 8.85 |

| Sequence | binding signal (log fluorescence intensity) |
| --- | --- |
| GCTGCTGCGGTGTATACCCCACCGGATGTGACCCCGGTCTTGATTCGCTTGACGCTGCTG | 10.2 |
| GTGTATAGGATCCCATCCAACCCACGTGTTAAAATGGTCTTGATTCGCTTGACGCTGCTG | 8.73 |
| GTGTATAGGATCCCATCCATCACACGTGTTAAAATGGTCTTGATTCGCTTGACGCTGCTG | 8.84 |
| TCCGGCTAGCAGCTCCACCCACTTCAGGCCTTGTAGGTCTTGATTCGCTTGACGCTGCTG | 8.7 |
| TCCGGCTACCAGCTCCACCCACTTCAGGCCGTGTAGGTCTTGATTCGCTTGACGCTGCTG | 8.89 |
| GCTGCTGCCGTGCATACCCCACCGGATGTGACCCCGGTCTTGATTCGCTTGACGCTGCTG | 10.4 |
| GGAAAAAGGCCCAGGGTATCACCGGAAGTGGGCTTAGTCTTGATTCGCTTGACGCTGCTG | 10.9 |
| TGTTGGGTAAGGGAATGTAGATCACGTGAATGAAAAGTCTTGATTCGCTTGACGCTGCTG | 8.84 |
| CACAATTTTTACAGTATTGTAGCACGCGTAACTCCTGTCTTGATTCGCTTGACGCTGCTG | 8.73 |
| GCTGCTGCGGTGCATACCACACCGGATGTGACCCCGGTCTTGATTCGCTTGACGCTGCTG | 10.3 |
| GATTAATTTCTGCCCTTATTCGCTCGTGCCATAACAGTCTTGATTCGCTTGACGCTGCTG | 8.78 |
| CTGGGACTTGACCCAACTCTGCCACGTGTGTCGTTTGTCTTGATTCGCTTGACGCTGCTG | 8.8 |
| GCTGCTGCGGTGCATACCCCACCGGATGGGACCCCGGTCTTGATTCGCTTGACGCTGCTG | 9.27 |
| GTGTATAGGAACCCATCCAACACACGTGTTAAAATGGTCTTGATTCGCTTGACGCTGCTG | 8.93 |
| GTGTATAGGATCCCATCAAACACACGTGTTAAAATGGTCTTGATTCGCTTGACGCTGCTG | 8.96 |
| CGGAAGTGTCGTAAACGTCGGATCTCCGGTTCTTCTGTCTTGATTCGCTTGACGCTGCTG | 9.32 |
| CACAATTTTTAGAGTAATGTAGCACGCGTAACTCCTGTCTTGATTCGCTTGACGCTGCTG | 8.9 |
| CAGCATAGGACTTCTTCCCTGAAGCAATTGATAACCGTCTTGATTCGCTTGACGCTGCTG | 8.91 |
| GGAAAAAGGCCAAGGGTAACACCGGAAGTGGGCTTAGTCTTGATTCGCTTGACGCTGCTG | 11 |
| CAGCATAGGACTTCTTCCCTGAAGCTATTGATAACCGTCTTGATTCGCTTGACGCTGCTG | 8.84 |
